In PubChem BioAssay AID1030 (National Center for Advancing Translational Sciences (NCATS), 2008):
Several values for one entry are separate records, joined by “and”; a condition that tells them apart may be missing. Identical values can stand only once. Hit rate of the full screen: of about 220,000 compounds, about 16,000 (7.3%) were called active. This list was built around the results that the source calls inconclusive (neither active nor inactive); the mix of calls is not that of the screen. The call rests on the fitted dose curve; in most records, active means well fitted inhibition curve with a large enough effect (not every such curve was filed as active); inconclusive means small, poorly fitted or top-dose-only effect, or another doubt; inactive means no such curve, though single readings can be large or run the other way. Potencies of inconclusive entries are doubtful fits and often do not repeat.

Target: Aldehyde dehydrogenase 1A1 (Homo sapiens) (UniProt P00352)
Test: qHTS Assay for Inhibitors of Aldehyde Dehydrogenase 1 (ALDH1A1)
Settings: Purified ALDH1A1, NADH fluorescence, propionaldehyde substrate; series mostly up to 75.3 µM
Potency means the concentration at half of the fitted maximal effect; tags describe the fitted curve by direction and shape.

Chain of UniProt P00352 (P00352 whole entry, looked up): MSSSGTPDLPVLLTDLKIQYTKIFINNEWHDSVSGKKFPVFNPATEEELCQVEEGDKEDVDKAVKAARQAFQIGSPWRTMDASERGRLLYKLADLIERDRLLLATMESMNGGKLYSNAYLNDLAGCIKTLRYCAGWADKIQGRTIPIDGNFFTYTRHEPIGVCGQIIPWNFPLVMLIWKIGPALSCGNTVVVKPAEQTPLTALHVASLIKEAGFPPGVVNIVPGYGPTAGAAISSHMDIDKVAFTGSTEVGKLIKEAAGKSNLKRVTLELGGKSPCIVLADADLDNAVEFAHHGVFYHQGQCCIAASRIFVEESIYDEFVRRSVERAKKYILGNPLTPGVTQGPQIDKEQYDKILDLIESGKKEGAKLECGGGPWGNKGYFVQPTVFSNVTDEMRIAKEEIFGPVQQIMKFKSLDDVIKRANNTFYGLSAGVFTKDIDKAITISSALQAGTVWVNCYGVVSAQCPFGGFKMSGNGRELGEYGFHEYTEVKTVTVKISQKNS

Compound	Potency
O=C(NC(=S)N(CCO)Cc1ccccc1)c1cc(Br)ccc1Cl	inconclusive: 39.8 µM [inhibitor, single point]
COC(=O)COc1ccc(/C=N/NC(=O)c2ccc(N(Cc3ccccc3)S(C)(=O)=O)cc2)cc1	inactive
O=c1[nH][nH]c(-c2ccccc2O)c1C(C[N+](=O)[O-])c1ccccc1 (stereo not drawn)	inconclusive: 22.4 µM [inhibitor, single point]
Cc1nc2cc(-c3cccc(F)c3)nn2c(C)c1CCC(=O)NC(C)CCc1ccco1 (stereo not drawn)	inconclusive: 31.6 µM [inhibitor, single point]
Brc1ccc(-c2cnc(-c3cccs3)o2)cc1	inconclusive: 35.5 µM [inhibitor, single point]
O=C(O)C1C(c2ccccc2)C(C(=O)Oc2ccccc2)C1c1ccccc1 (stereo not drawn)	active: 15.8 µM
Cn1cccc1Cc1nnc(SCC(=O)Nc2ccccc2F)n1-c1ccc(F)cc1	inconclusive: 25.1 µM [inhibitor, partial curve]
Cc1ccc(S(=O)(=O)Nc2cccc(NC(=O)CN3CCCCC3)c2)cc1	inconclusive: 22.4 µM [inhibitor, partial curve]
COc1ccccc1OC(C)C(=O)Nc1nc(-c2ccc(S(=O)(=O)N3CCOCC3)cc2)cs1 (stereo not drawn)	inactive
O=C(Nc1ccccc1)N(Cc1ccccc1)C1=NCCS1	inactive
O=c1[nH]c2ccc(Cl)cc2c(O)c1-c1ccccc1	inactive
Clc1cc(Br)ccc1OCCn1ccnc1	inconclusive: 39.8 µM [inhibitor, single point]
Cc1[nH]c(=S)sc1Cc1ccc(Cl)c(Cl)c1	active: 25.1 µM
CC(=O)N(C)c1ccc(C(O)(C(F)(F)F)C(F)(F)F)cc1	inactive
CCc1ccccc1NC(=O)CSc1nnc([C@@H](NC(=O)OC(C)(C)C)C(C)CC)o1 (stereo partly drawn)	inconclusive: 25.1 µM [inhibitor, single point]
COc1ccc(F)cc1C(=O)C1CCCN(C(=O)CSc2ccccn2)C1 (stereo not drawn)	inconclusive: 31.6 µM [inhibitor, single point]
Cn1ncc([N+](=O)[O-])c1C(=O)n1nnc2ccccc21	inactive
COc1ccc(NC(=O)CN2CCN(S(=O)(=O)c3ccc(Cl)cc3)CC2)cc1Cl	inactive
COc1ccc(S(=O)(=O)N2CCN(Cc3cccc(Cl)c3)CC2)cc1	inconclusive: 39.8 µM [inhibitor, single point]
CCn1c(SCC(N)=O)nc2sc3c(c2c1=O)CCN(C)C3	inconclusive: 14.1 µM [inhibitor, partial curve]
CC(C)c1ccc(NC(=O)COC(=O)/C=C/c2cccc([N+](=O)[O-])c2)cc1	inactive
COc1ccc(OC)c(NC(=O)CNC(=O)c2ccc([N+](=O)[O-])cc2)c1	inactive
COC(=O)C1=CN(C2CC2)C=C(C(=O)OC)C1c1ccc(C(=O)OC)cc1	inconclusive: 31.6 µM [inhibitor, partial curve]
Cc1cc(C)cc(CC2CC(=O)N(c3nc(C)cc(C)n3)C2=O)c1 (stereo not drawn)	inconclusive: 39.8 µM [inhibitor, single point]
O=C1C2N=NN(CC(=O)N3N=C(c4ccccc4)CC3c3ccc([N+](=O)[O-])cc3)C2C(=O)N1c1ccccc1 (stereo not drawn)	inactive

Compound	Potency
NC(=NCc1ccc(Cl)cc1Cl)NC(=O)c1nc(Cl)c(N)nc1N	inconclusive: 39.8 µM [inhibitor, single point] and inconclusive: 28.2 µM [inhibitor, partial curve]
CN1CCN(c2nc3c(c(=O)[nH]c(=O)n3C)n2Cc2cccc3ccccc23)CC1	active: 25.1 µM
COCCNC(=O)c1csc2c1CCCC2	inactive
COc1ccccc1-c1nc(NCCN2CCOCC2)c2ccccc2n1	inactive
COc1ccc(CCN2C(=O)CC(NNc3ccc([N+](=O)[O-])cc3)C2=O)cc1OC (stereo not drawn)	active: 10 µM
CCOC(=O)c1c(N2C(=O)CC(Sc3ccccc3C(=O)O)C2=O)sc2c1CCCC2 (stereo not drawn)	active: 4.47 µM
Cc1ccc(-c2csc3nnc(SCC(=O)N4CCN(Cc5ccccc5)CC4)n23)cc1	active: 14.1 µM
O=C(NCc1ccc2c(c1)OCO2)C1CCCN1C(=O)Nc1ccc(F)cc1 (stereo not drawn)	inactive
Brc1ccc(CNc2cc3c(cc2Br)OCCO3)cc1	inactive
CCN(CC)C(=O)Cn1cc(SCC(=O)NCc2ccco2)c2ccccc21	inconclusive: 39.8 µM [inhibitor, single point]
N=C1S/C(=C\c2ccc(-c3ccccc3C(=O)O)o2)C(=O)N1c1ccc2c(c1)OCO2	active: 11.2 µM
COC(=O)[C@@H]1CCCN1Cc1nc(Cc2ccc(OC)c(OC)c2)no1	active: 0.891 µM
CCOC(=O)c1nn(-c2ccc(OCC)cc2)c2nc(-c3cccc(OC)c3)c(C#N)c(=O)n12	inconclusive: 12.6 µM [inhibitor, partial curve]
O=C(N1CCOCC1)N1CCN(c2ccccn2)CC1	inconclusive: 39.8 µM [inhibitor, single point]
Fc1ccc(N/N=C/C=C/c2ccccc2)c(F)c1	inconclusive: 39.8 µM [inhibitor, single point]
O=c1c[n+]([O-])c2ccccc2n1OCc1ccccn1	inconclusive: 39.8 µM [inhibitor, single point]
CCOC(=O)c1c(NC(=O)Cn2cnc3scc(-c4ccc(C)cc4)c3c2=O)sc(C)c1C	active: 14.1 µM
O=C(O)c1ccn(Cn2cnc3ccccc32)n1	inactive
CC(C)NS(=O)(=O)c1ccc(OCC(=O)Nc2ccc(F)cc2)cc1	inactive
Cc1ccc(NC(=O)/C=C/c2cccs2)c([N+](=O)[O-])c1	inactive
COc1ccc(N2C(=O)C3CCCN3C2c2ccc(C)o2)cc1 (stereo not drawn)	inconclusive: 39.8 µM [inhibitor, single point]
O=C(c1ccccc1Cl)N1CCC(n2cccc2)CC1	inactive
COC(=O)c1ccc(CN2CCN(Cc3ccc(F)cc3)C(CCO)C2)cc1 (stereo not drawn)	inactive
CCc1c(C)nc2cc(-c3ccc(OC)c(OC)c3)nn2c1N1CCC(C)CC1	inconclusive: 7.94 µM [inhibitor, single point]
COC(=O)[C@H]1O[C@@H](c2cc(OC)c(C)c(OC)c2OCc2ccccc2)[C@H](C)[C@@H]2O[C@]12C	inactive

Compound	Potency
COCCCNC(=O)CSC1=Nc2ccccc2C2=NC(CC(=O)NCc3ccccc3)C(=O)N12 (stereo not drawn)	inconclusive: 25.1 µM [inhibitor, partial curve]
O=C(CN1CCN(CCN2C(=O)c3cccc4cccc(c34)C2=O)CC1)c1ccc(Cl)cc1	inconclusive: 12.6 µM [inhibitor, partial curve]
O=C(Nc1ccc(CN2CCOCC2)cc1)c1cccc(-c2cc3ccccc3oc2=O)c1	inconclusive: 39.8 µM [inhibitor, single point]
CCO[C@H]1OC(C(=O)N2CCN(Cc3ccccc3)CC2)=C[C@@H](c2ccc(C(F)(F)F)cc2)[C@@H]1CCCO	active: 4.47 µM
O=C(c1ccccc1F)N(Cc1ccc2c(c1)OCO2)Cc1cc2cc3c(cc2n2nnnc12)OCO3	inconclusive: 1.12 µM [inhibitor, partial curve]
O=C(C1CC1c1ccccc1)N1CCN(c2cccc(Cl)c2)CC1 (stereo not drawn)	active: 20 µM
COc1ccc(CCNC(=O)COc2ccc(N(C)S(=O)(=O)c3ccc(C)cc3)cc2)cc1	inconclusive: 28.2 µM [inhibitor, single point]
S=c1[nH]nc(-c2ccncc2)n1Cc1ccco1	inconclusive: 25.1 µM [inhibitor, partial curve]
O=C(NC(=S)Nc1ccc2oc(-c3ccncc3)nc2c1)c1ccccc1F	inconclusive: 28.2 µM [inhibitor, single point]
CC(C)c1onc(C(=O)N2CCCCCC2)c1[N+](=O)[O-]	active: 25.1 µM
CCCOc1ccc2c(=O)c(N3C(=O)c4ccccc4C3=O)c(C)oc2c1	inactive
Cc1nnc2c3ccccc3c(-c3cccs3)nn12	inactive
O=c1[nH]c(CSc2nnc(Cc3ccccc3)o2)nc2ccccc12	inactive
COc1cccc(Nc2nc(-c3ccc4c(c3)OCCO4)cs2)c1	inconclusive: 22.4 µM [inhibitor, single point]
COC(=O)C1=C(C)NC(C)=C(C(=O)OCCSc2ccccc2)C1C (stereo not drawn)	inconclusive: 35.5 µM [inhibitor, single point]
Cc1nc(-c2cc(-c3nc(-c4ccc(C(C)(C)C)cc4)no3)no2)cs1	inactive
CCn1c2ccccc2c2cnc(N=CN(C)C)c(C#N)c21	inconclusive: 39.8 µM [inhibitor, single point]
O=C(NCCCN1CCCC1=O)c1ccccc1NS(=O)(=O)c1ccc(Br)cc1	inconclusive: 10 µM [inhibitor, partial curve, poor fit]
COc1cccc(-c2cc(C(F)(F)F)n3ncc(C(=O)NCC4CCCO4)c3n2)c1 (stereo not drawn)	inconclusive: 31.6 µM [inhibitor, partial curve]
O=C(COC(=O)C1CC(O)CN1S(=O)(=O)c1ccc(Cl)cc1)c1ccccc1 (stereo not drawn)	inconclusive: 31.6 µM [inhibitor, single point]
Cc1oc(C(=O)O)cc1COc1ccc2c3c(c(=O)oc2c1C)CCCC3	inconclusive: 5.62 µM [inhibitor, full curve, poor fit]
Cc1cccc(CCNC(=O)CC2C(=O)NCCN2Cc2ccc(F)c(F)c2)n1 (stereo not drawn)	inconclusive: 37.7 µM [inhibitor, single point]
Clc1ccc(-c2n[nH]c3c2CCC3)cc1Cl	inconclusive: 39.8 µM [inhibitor, single point]
